Among all 310,000 compounds or so, about 2,200 (0.71%) showed an effect of 50% or more. The effect is printed as a negative number. This is one part of the list.
The compounds below were run against human ether-à-go-go-related gene (hERG) potassium channel (human, UniProt Q12809) (assay: primary screen, population patch clamp on CHO cells stably expressing hERG).
Sequence of human ether-à-go-go-related gene (hERG) potassium channel (Q12809 whole entry, looked up): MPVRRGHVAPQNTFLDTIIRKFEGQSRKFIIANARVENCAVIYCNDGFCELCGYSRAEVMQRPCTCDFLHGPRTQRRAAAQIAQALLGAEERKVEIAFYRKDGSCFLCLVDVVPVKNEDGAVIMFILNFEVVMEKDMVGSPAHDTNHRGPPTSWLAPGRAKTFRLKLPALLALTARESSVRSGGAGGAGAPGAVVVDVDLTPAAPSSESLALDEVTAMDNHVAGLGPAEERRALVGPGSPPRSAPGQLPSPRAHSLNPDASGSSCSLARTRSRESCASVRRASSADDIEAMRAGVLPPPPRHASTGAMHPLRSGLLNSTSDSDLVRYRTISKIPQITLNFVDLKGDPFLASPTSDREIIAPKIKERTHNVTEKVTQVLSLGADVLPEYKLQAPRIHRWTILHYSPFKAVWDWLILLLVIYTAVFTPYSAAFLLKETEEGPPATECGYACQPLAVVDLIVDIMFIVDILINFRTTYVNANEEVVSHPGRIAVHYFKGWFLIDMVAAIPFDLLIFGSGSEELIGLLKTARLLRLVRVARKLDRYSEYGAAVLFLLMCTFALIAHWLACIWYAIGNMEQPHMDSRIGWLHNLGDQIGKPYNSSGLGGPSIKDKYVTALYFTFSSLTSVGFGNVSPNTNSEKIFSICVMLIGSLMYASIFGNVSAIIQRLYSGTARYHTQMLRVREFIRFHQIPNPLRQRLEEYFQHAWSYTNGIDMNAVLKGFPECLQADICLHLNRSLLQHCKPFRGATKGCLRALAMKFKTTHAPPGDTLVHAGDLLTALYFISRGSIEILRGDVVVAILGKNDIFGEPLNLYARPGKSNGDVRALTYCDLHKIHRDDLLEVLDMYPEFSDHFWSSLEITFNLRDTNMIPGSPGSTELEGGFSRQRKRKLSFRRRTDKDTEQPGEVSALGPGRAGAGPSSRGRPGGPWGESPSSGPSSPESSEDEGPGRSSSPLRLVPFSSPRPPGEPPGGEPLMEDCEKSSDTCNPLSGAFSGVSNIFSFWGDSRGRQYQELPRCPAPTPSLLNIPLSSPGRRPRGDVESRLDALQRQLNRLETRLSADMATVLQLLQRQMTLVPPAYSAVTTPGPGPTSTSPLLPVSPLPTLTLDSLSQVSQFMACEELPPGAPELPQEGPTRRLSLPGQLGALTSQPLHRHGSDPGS

Row | SMILES | hERG current change (%, negative = inhibition) at 1uM [%]
1 | CC(C(=O)Nc1ccc(Cl)cc1Cl)N1C(=O)NC2(CCCC2)C1=O (centres unmarked) | 1.95
2 | CCCNC(=S)N1CCC(C(=O)c2ccc(F)cc2)CC1 | 11.9
3 | Cc1nc(-c2ccc(NC(=O)CC(C)C)cc2)cs1.Cl | 11.6
4 | COc1ccc(-c2nn(-c3ccccc3)cc2C(=O)O)cc1 | 17.7
5 | Cc1cccc(NC(=O)[C@H](NC(=O)[C@@H]2Cc3ccccc3CN2)c2ccccc2)c1 | 0.447
6 | CCCCC(=O)NC(=S)NNC(=O)CC | 8.05
7 | Cn1nc(C(F)(F)F)c(C(=O)Nc2ccc(C(F)(F)F)cc2)c1Cl | 6.26
8 | CC(NC(=O)c1ccccc1Br)c1nnc(SCc2ccc([N+](=O)[O-])cc2)n1C (centres unmarked) | -9.79
9 | CCO[C@@H]1OC(C(=O)O)=C[C@H](C)[C@H]1CCCO | 15
10 | Cc1ccc(C(=O)Nc2nc(C(C)(C)C)cs2)s1 | 15.1
11 | Cc1ccc(NC(=O)c2cc(NC(=O)CCCC(=O)O)ccc2Cl)cc1Cl | 14.5
12 | CCOC(=O)Cn1c(CN2CC(C)OC(C)C2)nc2c1c(=O)n(C)c(=O)n2C (centres unmarked) | 17.2
13 | CCN(CC)c1nc(Nc2ccc([N+](=O)[O-])cc2)nc(N(CC)CC)n1 | 5.39
14 | CC(C)NC(=O)COC(=O)c1ccc(S(=O)(=O)N2CCCC2)cc1 | 19.3
15 | COc1cc(OC)cc(-c2c(-c3ccc(F)cc3)c3cc(-c4ccc5[nH]ccc5c4)ccc3n2C)c1 | 9.39
16 | CCOc1ccccc1C(=O)NCC(=O)N1CCN(Cc2ccc3c(c2)OCO3)CC1 | 5.16
17 | CC(=O)c1c(C(C)=O)c(C)n(Cc2ccc(Cl)cc2)c1C | -12.3
18 | CCOc1cccc(C2C(C(=O)c3ccc(C)o3)=C(O)C(=O)N2Cc2ccncc2)c1 (centres unmarked) | 10.2
19 | CC(=O)Nc1ccc(-c2csc(NCc3ccco3)n2)cc1 | 1.42

Row | SMILES | hERG current change (%, negative = inhibition) at 1uM [%]
20 | CCCCN(CCCC)CCCNC(=O)c1ccc2nc(-c3ccccc3NC(C)=O)c(=O)[nH]c2c1 | 22.9
21 | O=C(NCc1ccccc1)C1CCN(c2nc(-c3ccccc3)nc3c2CCC3)CC1 | 5.27
22 | O=C(COc1ccc2c3c(c(=O)oc2c1)CCC3)N1C[C@H]2C[C@@H](C1)c1cccc(=O)n1C2 | -9.16
23 | N/C(=N\O)c1cn(Cc2ccccc2Cl)c2ccccc12 | 10.9
24 | CCN(CCn1cccn1)C(=O)c1cc(COc2cccc3cccnc23)on1 | 5.28
25 | COc1ccc(CCNC(=O)c2cnc(Cl)c(Cl)c2)cc1 | 10.4
26 | CC(=O)c1c(C(=O)O)[nH]c(C(=O)O)c1C | 10.4
27 | O=C(COc1ccccc1Cl)Nc1ccc(CN2CCCCC2)cc1 | -2.19
28 | COC(=O)c1ccc(Nc2nc3ccc(C)cc3n3cnnc23)cc1 | 12.1
29 | CCOC(=O)c1cnn2c(C(F)(F)F)cc(-c3ccco3)nc12 | 0.177
30 | Cc1ccc(N2CC(=O)N(NC(=O)CN3CCN(c4ccccc4)CC3)CC2=O)cc1 | 9.63
31 | O=C(C1CC1)N1CCc2cc(S(=O)(=O)NCc3ccccc3)ccc21 | 14.8
32 | c1ccc(Cn2nnc3c(NCc4ccc5c(c4)OCO5)ncnc32)cc1 | 4.27
33 | Cc1ccnc(NC(=O)Cc2ccc(F)cc2)n1 | -0.374
34 | Cc1cccc(C(=O)NC(C)c2ccc(-n3ccnc3)cc2)c1C (centres unmarked) | -0.373
35 | Cc1cc(C)n2nc(C(=O)N/N=C/c3cn(C)nc3C)nc2n1 | 15.2
36 | CCn1c(SC)nnc1C1CCN(S(=O)(=O)c2ccc(OC)cc2)CC1 | 12.9
37 | C/C(=N\NC(=O)c1nc2ccccn2c1C)c1cc2ccccc2o1 | -38.9
38 | CC(C)c1ccc(NC(=O)N(CCc2nc3ccccc3[nH]2)C2CCCC2)cc1 | 11.7

Row | SMILES | hERG current change (%, negative = inhibition) at 1uM [%]
39 | O=C(Nc1ccc2nc(-c3cccs3)[nH]c2c1)c1ccco1 | 8.03
40 | COc1cccc(Nc2nc3ccccc3nc2NS(=O)(=O)c2ccc(NC(C)=O)cc2)c1 | 20.1
41 | O=C(NCc1cccnc1)c1cc(Sc2ccccc2Cl)nc2ccccc12 | 10.4
42 | COc1ccc(OCC(O)CN(CC(O)COc2ccc(OC)cc2)c2cccc(O)c2)cc1 (centres unmarked) | 11
43 | COc1ccc(C2C(C(N)=O)=C(C)Nc3ncnn32)cc1 (centres unmarked) | -11.2
44 | CCOC(=O)/C=C/C(=O)OCc1csc(CC(=O)Nc2ccccc2C)n1 | 2.93
45 | COc1ccc(C(=O)Nc2ccc3[nH]ncc3c2)cc1 | 14.7
46 | COc1cccc(N(C(=O)c2snc(C(N)=O)c2N)C(C(=O)NCC2CCCO2)c2ccc3ncccc3c2)c1 (centres unmarked) | 7.02
47 | Cn1cnnc1SC1c2cccc3cccc(c23)C1NS(=O)(=O)c1ccc(Cl)cc1 (centres unmarked) | 11.3
48 | NC(=O)c1ccc(C(F)(F)F)n(Cc2cccc(Cl)c2)c1=O | -0.183
49 | CCc1nnc(NC(=O)c2ccc(COc3ccc(C)cc3)o2)s1 | 5.58
50 | Cc1cc(-c2ccccc2)nc(=O)[nH]1 | 9.57
51 | COc1ccc(CO/N=C/c2c(C)[nH]c(=O)[nH]c2=O)cc1 | 9
52 | COc1cc2ccccc2cc1C(=O)NC(=S)Nc1ccc(C(=O)O)cc1 | 9.34
53 | CNC(=O)CC(C(=O)O)c1ccc(OCC(C)C)cc1 (centres unmarked) | 13.8
54 | Cl.c1ccc(-c2nnc(CN3CCN(C(c4ccccc4)c4ccccc4)CC3)o2)cc1 | 10.9
55 | Cc1cc(C)nc(N(C#N)CCOc2ccccc2)n1 | 7.77
56 | CC(C)(C)c1cc[n+](-c2nc([O-])sc2C=O)cc1 | 18.6
